Results reported in paper PMC7595112, “Ketohexokinase-A acts as a nuclear protein kinase that mediates fructose-induced metastasis in breast cancer” (Nature Communications, 2020).
These are yes or no findings as the source states them, for the method shown. For some assays here: Binding seen in cells or lysates may run through a third protein. Some results given as binding are weak or reduced against the parent protein; the word gives no strength. For some assays here: Where a sequence is shown, tags or fusion partners need not be part of it. Values belong to the molecule of their own block, whether it stands above or below them.

Chains of the proteins cited; added tags and fusions are not shown.
UniProt Q14974: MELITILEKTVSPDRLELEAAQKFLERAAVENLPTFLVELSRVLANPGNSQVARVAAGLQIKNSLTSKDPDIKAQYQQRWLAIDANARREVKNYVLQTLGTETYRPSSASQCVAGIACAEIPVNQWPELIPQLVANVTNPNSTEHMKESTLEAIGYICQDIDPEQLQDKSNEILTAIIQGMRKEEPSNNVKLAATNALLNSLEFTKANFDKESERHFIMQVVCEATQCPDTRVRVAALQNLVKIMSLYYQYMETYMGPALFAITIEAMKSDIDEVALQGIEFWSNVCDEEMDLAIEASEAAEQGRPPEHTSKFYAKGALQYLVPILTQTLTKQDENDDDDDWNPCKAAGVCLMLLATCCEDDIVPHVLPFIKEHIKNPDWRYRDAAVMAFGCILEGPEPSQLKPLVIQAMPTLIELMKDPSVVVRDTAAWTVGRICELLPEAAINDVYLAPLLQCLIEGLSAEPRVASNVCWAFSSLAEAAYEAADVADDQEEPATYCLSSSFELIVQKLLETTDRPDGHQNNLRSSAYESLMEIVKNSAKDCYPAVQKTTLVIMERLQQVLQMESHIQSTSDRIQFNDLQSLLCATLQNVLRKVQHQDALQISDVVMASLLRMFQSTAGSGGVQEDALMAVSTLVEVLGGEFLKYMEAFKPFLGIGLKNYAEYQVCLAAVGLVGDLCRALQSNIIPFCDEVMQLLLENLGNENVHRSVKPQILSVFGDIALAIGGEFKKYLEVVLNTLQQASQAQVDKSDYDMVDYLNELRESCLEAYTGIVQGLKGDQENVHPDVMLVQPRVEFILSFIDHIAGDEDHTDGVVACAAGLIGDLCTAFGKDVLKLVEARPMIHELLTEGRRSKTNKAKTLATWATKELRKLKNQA
UniProt O95863: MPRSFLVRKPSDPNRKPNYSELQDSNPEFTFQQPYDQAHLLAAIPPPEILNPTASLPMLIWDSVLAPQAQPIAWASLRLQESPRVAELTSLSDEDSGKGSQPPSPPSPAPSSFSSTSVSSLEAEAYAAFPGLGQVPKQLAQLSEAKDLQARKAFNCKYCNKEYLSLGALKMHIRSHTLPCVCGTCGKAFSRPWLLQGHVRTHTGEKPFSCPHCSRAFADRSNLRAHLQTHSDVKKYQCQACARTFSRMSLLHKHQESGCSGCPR

Legend:
Myc-KHK-A_L83A (human) = target: T1, Myc-KHK-A_L83A (human) (UniProt P50053); assay: co-IP; MDA-MB-231 transfected with Myc-KHK-A or Myc-KHK-A_L83A (with LRRC59 siRNA in Fig. 4f), 5 mM fructose for 8 h; anti-Myc immunoprecipitation, blots for LRRC59 and KPNB1
T1 sequence: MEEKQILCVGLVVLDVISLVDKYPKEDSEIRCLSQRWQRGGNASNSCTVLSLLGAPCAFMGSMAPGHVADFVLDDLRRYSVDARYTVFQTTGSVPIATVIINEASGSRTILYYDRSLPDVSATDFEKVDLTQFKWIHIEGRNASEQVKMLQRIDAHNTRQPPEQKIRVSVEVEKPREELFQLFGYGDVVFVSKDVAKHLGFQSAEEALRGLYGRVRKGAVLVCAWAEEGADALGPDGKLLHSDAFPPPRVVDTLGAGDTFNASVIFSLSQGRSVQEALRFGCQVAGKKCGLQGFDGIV

[1] = target: T2, S25-phosphorylated YWHAH, endogenous (fructose-treated MDA-MB-231 cells) (human (endogenous in MDA-MB-231)) (UniProt Q04917); assay: co-IP; MDA-MB-231, 5 mM fructose for 24 h, KHK-A level varied; binding analysis between YWHAH and endogenous SLUG, SNAIL or TWIST
T2 sequence (chain, phosphoserine at 25): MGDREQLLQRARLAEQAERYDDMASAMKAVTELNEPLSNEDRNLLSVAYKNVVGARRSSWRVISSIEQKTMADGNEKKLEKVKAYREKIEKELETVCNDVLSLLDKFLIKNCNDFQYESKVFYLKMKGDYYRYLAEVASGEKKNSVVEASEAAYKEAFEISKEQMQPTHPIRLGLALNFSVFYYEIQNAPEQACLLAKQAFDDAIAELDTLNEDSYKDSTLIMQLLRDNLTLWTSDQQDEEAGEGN

[2] = target: T3, tyrosine 3-monooxygenase/tryptophan 5-monooxygenase activation protein Eta (YWHAH), endogenous (human (endogenous in MCF-7 and MDA-MB-231)) (UniProt Q04917); assay: as above
T3 sequence: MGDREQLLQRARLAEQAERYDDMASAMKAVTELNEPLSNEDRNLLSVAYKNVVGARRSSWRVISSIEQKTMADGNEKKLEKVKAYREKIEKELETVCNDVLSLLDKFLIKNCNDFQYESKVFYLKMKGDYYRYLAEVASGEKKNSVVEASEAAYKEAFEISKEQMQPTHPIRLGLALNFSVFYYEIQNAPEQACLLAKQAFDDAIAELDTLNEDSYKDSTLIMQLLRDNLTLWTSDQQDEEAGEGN

[3] = target: T4, His-KHK-A expressed in breast-cancer cells (human) (UniProt P50053); assay: co-IP + pull-down; MDA-MB-231 co-transfected with His-KHK-A and FLAG-YWHAH WT or D21A; co-precipitation cross-checked with anti-FLAG and nickel-NTA affinity gels
T4 sequence: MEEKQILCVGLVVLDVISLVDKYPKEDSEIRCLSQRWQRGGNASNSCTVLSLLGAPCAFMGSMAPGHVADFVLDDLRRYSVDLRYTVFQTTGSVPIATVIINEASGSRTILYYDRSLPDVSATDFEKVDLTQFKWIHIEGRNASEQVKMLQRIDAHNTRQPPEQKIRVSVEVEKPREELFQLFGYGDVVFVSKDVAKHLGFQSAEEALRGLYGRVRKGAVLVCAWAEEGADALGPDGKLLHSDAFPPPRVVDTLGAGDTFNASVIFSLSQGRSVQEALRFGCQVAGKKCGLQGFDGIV

[4] = target: T5, ketohexokinase-A (KHK-A), endogenous (human (endogenous in MCF-7 or MDA-MB-231)) (UniProt P50053); assay: co-IP; cells incubated with 5 mM fructose for 8 h; lysates immunoprecipitated with IgG, anti-KHK-A or anti-KHK-C, immunoblotted with anti-LRRC59 or anti-YWHAH
T5 sequence: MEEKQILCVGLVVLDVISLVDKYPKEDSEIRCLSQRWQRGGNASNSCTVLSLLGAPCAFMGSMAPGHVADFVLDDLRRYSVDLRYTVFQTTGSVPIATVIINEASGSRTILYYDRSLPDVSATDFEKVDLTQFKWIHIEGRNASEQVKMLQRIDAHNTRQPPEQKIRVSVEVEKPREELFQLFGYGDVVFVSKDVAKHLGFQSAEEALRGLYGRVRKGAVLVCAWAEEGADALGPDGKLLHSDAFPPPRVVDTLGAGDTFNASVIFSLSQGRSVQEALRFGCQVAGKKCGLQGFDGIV

[5] = target: T6, ketohexokinase-C (KHK-C), endogenous (human (endogenous in MCF-7 or MDA-MB-231)) (UniProt P50053); assay: as above
T6 sequence: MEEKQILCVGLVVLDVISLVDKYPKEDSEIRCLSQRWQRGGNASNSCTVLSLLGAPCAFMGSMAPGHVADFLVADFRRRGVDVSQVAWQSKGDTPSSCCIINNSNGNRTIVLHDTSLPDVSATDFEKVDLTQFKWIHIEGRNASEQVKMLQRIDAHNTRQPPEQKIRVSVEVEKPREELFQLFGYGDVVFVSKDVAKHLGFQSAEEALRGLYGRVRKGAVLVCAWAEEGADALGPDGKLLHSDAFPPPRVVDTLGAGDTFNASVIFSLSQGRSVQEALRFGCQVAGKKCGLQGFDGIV

[6] = target: T7, His(6)-KHK-A purified from HEK293T cells (human) (UniProt P50053); assay: pull-down; purified FLAG-YWHAH WT or D21A and KHK-A co-incubated for 1 h; KHK-A pulled down with nickel-NTA, bound YWHAH immunoblotted; both purified
T7 sequence: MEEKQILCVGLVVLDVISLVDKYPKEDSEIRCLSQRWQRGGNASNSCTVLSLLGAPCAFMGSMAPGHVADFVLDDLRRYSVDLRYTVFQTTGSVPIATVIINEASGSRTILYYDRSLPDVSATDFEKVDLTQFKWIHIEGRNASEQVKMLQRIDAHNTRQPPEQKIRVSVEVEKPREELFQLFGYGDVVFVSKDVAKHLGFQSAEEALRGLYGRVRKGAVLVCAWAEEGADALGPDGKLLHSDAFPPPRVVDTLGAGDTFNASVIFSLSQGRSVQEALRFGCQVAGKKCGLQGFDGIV

[7] = target: T8, S25-phosphorylated wild-type YWHAH expressed in fructose-treated MDA-MB-231 cells (human) (UniProt Q04917); assay: co-IP; MDA-MB-231 expressing YWHAH or YWHAH_S25A, 5 mM fructose for 24 h; co-precipitation of SLUG with YWHAH
T8 sequence (chain, phosphoserine at 25): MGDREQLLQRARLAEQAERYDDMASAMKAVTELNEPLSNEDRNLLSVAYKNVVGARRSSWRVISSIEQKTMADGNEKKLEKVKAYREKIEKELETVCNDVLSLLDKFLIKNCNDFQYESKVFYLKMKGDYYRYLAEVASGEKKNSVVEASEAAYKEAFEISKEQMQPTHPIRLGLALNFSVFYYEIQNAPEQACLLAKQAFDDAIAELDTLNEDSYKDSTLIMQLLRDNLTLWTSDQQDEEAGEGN

[8] = target: T9, YWHAH_S25A expressed in MDA-MB-231 cells (human) (UniProt Q04917); assay: as above
T9 sequence: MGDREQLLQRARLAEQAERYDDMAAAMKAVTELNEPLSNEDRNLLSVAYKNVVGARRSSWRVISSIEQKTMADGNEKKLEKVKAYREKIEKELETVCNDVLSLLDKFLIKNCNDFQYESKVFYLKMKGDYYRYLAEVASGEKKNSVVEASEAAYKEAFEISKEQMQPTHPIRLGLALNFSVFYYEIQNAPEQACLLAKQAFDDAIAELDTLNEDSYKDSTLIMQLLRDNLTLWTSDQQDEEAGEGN

B2: tyrosine 3-monooxygenase/tryptophan 5-monooxygenase activation protein Eta (YWHAH), endogenous (protein, UniProt Q04917 1-246)
chain: MGDREQLLQRARLAEQAERYDDMASAMKAVTELNEPLSNEDRNLLSVAYKNVVGARRSSWRVISSIEQKTMADGNEKKLEKVKAYREKIEKELETVCNDVLSLLDKFLIKNCNDFQYESKVFYLKMKGDYYRYLAEVASGEKKNSVVEASEAAYKEAFEISKEQMQPTHPIRLGLALNFSVFYYEIQNAPEQACLLAKQAFDDAIAELDTLNEDSYKDSTLIMQLLRDNLTLWTSDQQDEEAGEGN
- binding [4]: binds
- binding [5]: no binding

B3: FLAG-YWHAH D21A expressed in MDA-MB-231 cells (protein, UniProt Q04917 1-246)
chain: MGDREQLLQRARLAEQAERYADMASAMKAVTELNEPLSNEDRNLLSVAYKNVVGARRSSWRVISSIEQKTMADGNEKKLEKVKAYREKIEKELETVCNDVLSLLDKFLIKNCNDFQYESKVFYLKMKGDYYRYLAEVASGEKKNSVVEASEAAYKEAFEISKEQMQPTHPIRLGLALNFSVFYYEIQNAPEQACLLAKQAFDDAIAELDTLNEDSYKDSTLIMQLLRDNLTLWTSDQQDEEAGEGN
- binding [3]: no binding

B5: SLUG, endogenous (protein, UniProt O43623 1-268)
chain: MPRSFLVKKHFNASKKPNYSELDTHTVIISPYLYESYSMPVIPQPEILSSGAYSPITVWTTAAPFHAQLPNGLSPLSGYSSSLGRVSPPPPSDTSSKDHSGSESPISDEEERLQSKLSDPHAIEAEKFQCNLCNKTYSTFSGLAKHKQLHCDAQSRKSFSCKYCDKEYVSLGALKMHIRTHTLPCVCKICGKAFSRPWLLQGHIRTHTGEKPFSCPHCNRAFADRSNLRAHLQTHSDVKKYQCKNCSKTFSRMSLLHKHEESGCCVAH
- binding [7]: binds
- binding [8]: no binding
- binding [1]: binds

Now from value to molecule:

- binding (Myc-KHK-A_L83A (human)): no binding
Molecule: KPNB1, endogenous (from UniProt Q14974 1-876)

- binding [1]: binds
- binding [2]: binds
Molecule: SNAIL, endogenous (from UniProt O95863 1-264)

- binding [3]: binds
B1: FLAG-YWHAH WT expressed in MDA-MB-231 cells (protein, UniProt Q04917 1-246)
chain: MGDREQLLQRARLAEQAERYDDMASAMKAVTELNEPLSNEDRNLLSVAYKNVVGARRSSWRVISSIEQKTMADGNEKKLEKVKAYREKIEKELETVCNDVLSLLDKFLIKNCNDFQYESKVFYLKMKGDYYRYLAEVASGEKKNSVVEASEAAYKEAFEISKEQMQPTHPIRLGLALNFSVFYYEIQNAPEQACLLAKQAFDDAIAELDTLNEDSYKDSTLIMQLLRDNLTLWTSDQQDEEAGEGN

- binding [6]: no binding
B4: Purified FLAG-YWHAH D21A (protein, UniProt Q04917 1-246)
chain: MGDREQLLQRARLAEQAERYADMASAMKAVTELNEPLSNEDRNLLSVAYKNVVGARRSSWRVISSIEQKTMADGNEKKLEKVKAYREKIEKELETVCNDVLSLLDKFLIKNCNDFQYESKVFYLKMKGDYYRYLAEVASGEKKNSVVEASEAAYKEAFEISKEQMQPTHPIRLGLALNFSVFYYEIQNAPEQACLLAKQAFDDAIAELDTLNEDSYKDSTLIMQLLRDNLTLWTSDQQDEEAGEGN
